# Results reported in the supplement of paper PMC10338343.
# ± gives the standard deviation. The list shows a part of the results, in another mix than the full data.
# Tested on: MIWI (PIWIL1) piRISC loaded with piRNA #1 (30 nt)
# Experiment: pre-steady-state target cleavage rate (min^-1); MIWI and MILI are mouse PIWI proteins and EfPiwi is from a freshwater sponge; tags in brackets are library labels; higher = faster piRNA-guided slicing of the target
# Conditions: guide: piRNA #1 5'p-UGAGGUAGUAGGUUGUAUAGUAUCCAGAGG; auxiliary factor: 500 nM mouse GTSF1
# In short: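 Using HEPES–potassium acetate buffer at 33 °C, 1 nM active affinity-purified piRISC with a single synthetic guide was mixed with 0.1 nM transcribed, DNA-blocked target RNA library for 0–8 or 0–960 min, with or without 500 nM GTSF1 partner protein. Uncleaved targets were sequenced and normalised to depth and to weakly complementary targets, and three trials were pooled with k3 capped at 0.0001 min^-1. A burst-and-steady-state fit gave the pre-steady-state cleavage rate.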
row,Sequence,pre-steady-state target cleavage rate
1,GGUCUGGUUACUAAACAACCUACUACCUCA,1.6 ± 0.11
2,GGAGACGAUACUAUACAUGGUACUACCUCA,0.0284 ± 0.0053
3,GGACUGGAUACUAUACAACUACUACCUCA,0.541 ± 0.05
4,GGAGACCAUACUAUACAACCUACAUGCUCA,0.144 ± 0.036
5,GCUCUGGAUACAUAUACAACCUACUACCUCA,1.54 ± 0.083
6,GGAGACCUAAGUUUACAACCUACUACCUCA,0.00564 ± 0.0037
7,GGUCUGGAUACUAUACAACCUACUAUCUCA,1.04 ± 0.093
8,GGAGAGGAUAGUAUACAACCUACUACCUCA,0.145 ± 0.031
9,GCUGUGGAUUCUAUACAACCUACUACCUCA,1.69 ± 0.1
10,GGUCUGGAUACUAUUCAACCUUCUACCUCA,0.594 ± 0.036
11,GGUCUGGAUACUAUACAACCUACUAACUCA,0.115 ± 0.018
12,GGACUGGAUACUACUACAACCUACUACCUCA,1.48 ± 0.13
13,GGAGACCUAACUUUAGAACCUACUACCUCA,0.074 ± 0.019
14,GCACUGGAUACUAUACAACCUACUUCCUCA,0.184 ± 0.045
15,GGAGACCUAUGAUAUCAACCUUCAACCUCA,< 0.0001
16,GGAGUGGAUACUAUACAACCUACUAUCCUCA,0.424 ± 0.04
17,GGAGUGGUUACUAUACAACCUACUACGUCA,0.231 ± 0.035
18,GGAGACCUAUGUUAACAACCUACUACCUCA,0.00404 ± 0.0029
19,GGAGACGUUACUAUACAAGCUACUACCUCA,0.869 ± 0.048
20,CCUCUGGAUACUAUAGAACCUUCUACCUCA,0.195 ± 0.026
21,GCUGAGGAUACUAUACAACCUACUACCUCA,1.28 ± 0.059
22,GGAGACCUAACUAAACAACCUACUACGUCA,0.33 ± 0.11
23,GGAGACCUUUCUAUACAACCUACUUCCUCA,0.142 ± 0.018
24,GGAGACGAUACUAUACAACCUUCUUCCUCA,0.252 ± 0.043

row,Sequence,pre-steady-state target cleavage rate
1,GGACUGGAAUGUAUACAACCUACUACCUCA,0.388 ± 0.063
2,GCUCUGGAUACUAUACAACCUACACCUCA,0.00765 ± 0.0038
3,GGACUGGAUACUAUACAACCCACUACCUCA,0.515 ± 0.039
4,GGAGAGGAUACUUUACAUCCUACUACCUCA,1.11 ± 0.062
5,CCUCUGGAUACUAAAGAACCUACUACCUCA,1.56 ± 0.12
6,GGAGUGGAUUCUAUACAACCUACAACCUCA,0.453 ± 0.046
7,GGAGACCUAUCUUUACAAGCUACUACCUCA,0.0778 ± 0.013
8,GGAGUGGAUACUCUACAACCUACUACCUCA,1.6 ± 0.096
9,GGAGACGAUACUAUACAACCUACUAGGAGA [g6:g24:cont:t1A],0.00718 ± 0.0049
10,GGAGACGAUACUAUACAACCUACUACCUAA,1.14 ± 0.074
11,GGAGACGAUACUAUUCAACCUUCUACCUCA,0.561 ± 0.031
12,GGAGACGAUACUAUACAACGUACUACCACA,0.766 ± 0.072
13,GGACUGGAUACUAUACACCUACUACCUCA,0.233 ± 0.035
14,GGAGACCUAUCUAUACAAACUACUACCUCA,0.369 ± 0.029
15,GGAGACGAUAGUAAACAACCUACUACCUCA,0.468 ± 0.061
16,GGAGACCUAUGAUAUGAAGCCUACUACCUCA,< 0.0001
17,GGAGACCUAUCUAUACAAGCAACUACCUCA,0.0059 ± 0.0026
18,CCUCUGGAUACUUUUCAACCUACUACCUCA,1.35 ± 0.087
19,GGUCUGGAUACUAUCAACCUACUACCUCA,1.68 ± 0.12
20,CCAUCUGGAUACUAUACAACCUACUACCUCA,1.4 ± 0.072
21,CCUCUGGAUACUAUACAUCCUACUACCUCA,1.85 ± 0.12
22,GGAGACCUAACUAUACAAGCUACUUCCUCA,0.195 ± 0.026
23,GGAGACCUAUGUACACAACCUACUACCUCA,0.0163 ± 0.0046
24,GGAGACGAAACUAUACAACGUACUACCUCA,0.415 ± 0.03
